Article PMC4336329 (PLoS ONE, 2015)
Hit rate of the full screen: of about 310,000 compounds, about 2,200 (0.71%) showed an effect of 50% or more. The effect is printed as a negative number. The list shows a part of the results.

molecular target: human ether-à-go-go-related gene (hERG) potassium channel (human, UniProt Q12809); assay: primary screen, population patch clamp on CHO cells stably expressing hERG
Sequence (Q12809 whole entry, looked up): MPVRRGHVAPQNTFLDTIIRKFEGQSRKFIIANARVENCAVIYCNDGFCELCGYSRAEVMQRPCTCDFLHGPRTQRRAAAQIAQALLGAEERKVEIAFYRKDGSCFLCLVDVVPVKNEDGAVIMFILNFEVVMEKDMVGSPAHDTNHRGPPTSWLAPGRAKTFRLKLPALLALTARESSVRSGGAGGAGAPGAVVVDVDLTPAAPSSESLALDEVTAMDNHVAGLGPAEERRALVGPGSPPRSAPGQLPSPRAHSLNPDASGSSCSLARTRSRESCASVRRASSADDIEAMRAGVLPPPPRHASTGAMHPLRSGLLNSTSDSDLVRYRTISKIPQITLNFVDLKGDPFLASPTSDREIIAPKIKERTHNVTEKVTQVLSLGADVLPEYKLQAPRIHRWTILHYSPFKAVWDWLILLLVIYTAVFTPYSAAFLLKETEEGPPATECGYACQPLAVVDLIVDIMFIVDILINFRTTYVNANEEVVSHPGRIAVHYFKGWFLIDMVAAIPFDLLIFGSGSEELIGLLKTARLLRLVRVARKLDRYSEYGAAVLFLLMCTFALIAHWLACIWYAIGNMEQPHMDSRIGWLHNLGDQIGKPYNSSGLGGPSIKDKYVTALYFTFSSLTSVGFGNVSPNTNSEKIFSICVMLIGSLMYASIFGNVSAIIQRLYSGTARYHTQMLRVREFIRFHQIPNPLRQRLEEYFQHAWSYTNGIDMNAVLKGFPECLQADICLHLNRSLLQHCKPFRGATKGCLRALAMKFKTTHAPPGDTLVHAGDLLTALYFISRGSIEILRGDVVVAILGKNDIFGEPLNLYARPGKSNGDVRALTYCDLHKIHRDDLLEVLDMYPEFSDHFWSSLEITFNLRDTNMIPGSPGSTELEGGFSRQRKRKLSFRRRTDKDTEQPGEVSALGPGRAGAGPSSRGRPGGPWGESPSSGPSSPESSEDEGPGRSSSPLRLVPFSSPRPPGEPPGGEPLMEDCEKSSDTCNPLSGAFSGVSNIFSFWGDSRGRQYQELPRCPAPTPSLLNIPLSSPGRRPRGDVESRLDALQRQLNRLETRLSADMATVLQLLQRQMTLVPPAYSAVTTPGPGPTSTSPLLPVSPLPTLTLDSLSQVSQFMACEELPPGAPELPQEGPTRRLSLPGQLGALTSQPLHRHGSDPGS

For `Cc1cc(NC(=O)CSc2nnc(CNC(=O)c3ccc(F)cc3)o2)no1`, which “hERG current change (%, negative = inhibition) at 1uM” value is on record?
Its value is 3.73%.

Which “hERG current change (%, negative = inhibition) at 1uM” value does the source give for `CCN(CC)CCNC(=O)Cc1c(C(=O)O)n(CC)c2ccccc12` here?
Its value is 11.8%.

`Cc1noc(C)c1COc1ncnc2ccccc12` was tested. Which “hERG current change (%, negative = inhibition) at 1uM” value did it give?
Its value is 16.5%.

For `COC(=O)C1C(=O)C(C(=O)c2ccc([N+](=O)[O-])cc2)C(=O)CC1(C)C` (stereo not drawn), which “hERG current change (%, negative = inhibition) at 1uM” value is on record?
Its value is 14.4%.

For `CCc1sc(C(=O)N2CCc3ccccc32)cc1C`, which “hERG current change (%, negative = inhibition) at 1uM” value is on record?
The value was 14.1%.

For `COc1ccc(CCNC(=O)CN(CCc2ccccc2)S(C)(=O)=O)cc1`, which “hERG current change (%, negative = inhibition) at 1uM” value is on record?
Its value is 15.4%.

With `CCSc1ccccc1C(=O)NCc1cccnc1` as the compound, how does the “hERG current change (%, negative = inhibition) at 1uM” value read?
The value was 11.8%.

For `Cc1ccc2ncnc(Nc3ccccc3)c2c1`, which “hERG current change (%, negative = inhibition) at 1uM” value is on record?
Its value is 7.15%.

For `N#Cc1ccc(CN2CCN(C(=O)c3cc(Cl)c4c(c3)OCCO4)CC2)cc1`, which “hERG current change (%, negative = inhibition) at 1uM” value is on record?
Its value is -37.2%.

How did the “hERG current change (%, negative = inhibition) at 1uM” value turn out when `CCCCC(=O)Nc1cc(OCC)c(NC(=O)c2ccccc2[N+](=O)[O-])cc1OCC` was run?
Its value is 13.2%.

For `COC(=O)c1cn[nH]c1NC(=S)Nc1ccccc1C`, which “hERG current change (%, negative = inhibition) at 1uM” value is on record?
Its value is -2.55%.

For `CC1=CC(C)(C)Nc2ccc(OC(=O)C(Cc3ccccc3)N3C(=O)c4ccccc4C3=O)cc21` (stereo not drawn), which “hERG current change (%, negative = inhibition) at 1uM” value is on record?
The value was 3.52%.

With `O=C(NC1CC2CCC(C1)N2Cc1ccccc1)c1ccccc1Cl` (stereo not drawn) as the compound, how does the “hERG current change (%, negative = inhibition) at 1uM” value read?
Its value is -10%.

`O=[N+]([O-])c1nn(-c2ccccc2)n(O)c1=NC1CCN(Cc2ccccc2)CC1` was tested. Which “hERG current change (%, negative = inhibition) at 1uM” value did it give?
Its value is -16%.

How did the “hERG current change (%, negative = inhibition) at 1uM” value turn out when `CC1CN(S(=O)(=O)c2ccc(F)cc2)C(C)N1C(=O)N1CCOCC1` (stereo not drawn) was run?
The value was 2.56%.

For `CC1CN(C(=O)c2ccccc2NS(=O)(=O)c2cccc([N+](=O)[O-])c2)CC(C)O1` (stereo not drawn), which “hERG current change (%, negative = inhibition) at 1uM” value is on record?
Its value is 20.8%.

How did the “hERG current change (%, negative = inhibition) at 1uM” value turn out when `Cc1ccc(C2C(C(=O)c3cccs3)=C(O)C(=O)N2c2cccc(C)n2)cc1` (stereo not drawn) was run?
Its value is 7.57%.

For `COCCNC(=O)C(C)OC(=O)c1cc2sccc2n1C` (stereo not drawn), which “hERG current change (%, negative = inhibition) at 1uM” value is on record?
Its value is 6.79%.

`COc1cc(NC(=O)C2CCCCC2)c(OC)cc1NC(=O)c1ccco1` was tested. Which “hERG current change (%, negative = inhibition) at 1uM” value did it give?
Its value is -3.2%.

Which “hERG current change (%, negative = inhibition) at 1uM” value does the source give for `CC(=O)N1CCN(c2ccc(NCc3ccc4c(c3)OCO4)cc2)CC1` here?
The value was 10.9%.

Which “hERG current change (%, negative = inhibition) at 1uM” value does the source give for `O=C(NN1C(=O)C2C3C=CC(O3)C2C1=O)c1cccc(O)c1` (stereo not drawn) here?
The value was 12.8%.

With `CCN=C1S/C(=C/c2ccc(-c3ccc(F)cc3)o2)C(=O)N1CC` as the compound, how does the “hERG current change (%, negative = inhibition) at 1uM” value read?
The value was 15.7%.

For `CCOC(=O)c1sc(NC(=O)C2CCCCC2)nc1C`, which “hERG current change (%, negative = inhibition) at 1uM” value is on record?
Its value is 11.4%.

How did the “hERG current change (%, negative = inhibition) at 1uM” value turn out when `CCOC(=O)C1=C(CC)OC(N)=C(C#N)C1c1ccc(NC(C)=O)cc1` (stereo not drawn) was run?
The value was 5.16%.

How did the “hERG current change (%, negative = inhibition) at 1uM” value turn out when `O=C(CSc1ccccc1)Nc1cc(Cl)ccc1Oc1ccccc1` was run?
The value was -1.26%.

Which “hERG current change (%, negative = inhibition) at 1uM” value does the source give for `Nc1cccc2c1C(=O)N(C(=O)c1ccco1)C2=O` here?
Its value is 5.73%.

For `COc1ccc(NC(=O)CN2CCN(CC(=O)Nc3ccccc3Cl)CC2)cc1`, which “hERG current change (%, negative = inhibition) at 1uM” value is on record?
The value was -79.3%.

With `Cc1ccc(NC(=O)CNC(=O)c2sc3ccccc3c2Cl)nc1` as the compound, how does the “hERG current change (%, negative = inhibition) at 1uM” value read?
Its value is 20.1%.

For `O=C1NCCNC1(c1c[nH]c2ccccc12)C(F)(F)F` (stereo not drawn), which “hERG current change (%, negative = inhibition) at 1uM” value is on record?
Its value is 7.04%.

How did the “hERG current change (%, negative = inhibition) at 1uM” value turn out when `CCc1cc(CNC(=O)c2ccc(OC3CCN(CCc4ccccc4)CC3)cc2)on1` was run?
The value was -54.4%.

Which “hERG current change (%, negative = inhibition) at 1uM” value does the source give for `COc1ccc(C2/C(=C(/O)c3ccccc3)C(=O)C(=O)N2C)c(OC)c1` (stereo not drawn) here?
Its value is 18.1%.

With `CC(C)c1ccc(Nc2nnc(SC3CCOC3=O)s2)cc1` (stereo not drawn) as the compound, how does the “hERG current change (%, negative = inhibition) at 1uM” value read?
Its value is 10.6%.

`CC(C)c1ccc(/C=C2\SC(=S)N(CC(=O)NCCCN3CCOCC3)C2=O)cc1` was tested. Which “hERG current change (%, negative = inhibition) at 1uM” value did it give?
The value was 21.1%.

How did the “hERG current change (%, negative = inhibition) at 1uM” value turn out when `O=C(c1ccc(F)c(S(=O)(=O)N2CCOCC2)c1)N1CCN(c2ccc(F)cc2)CC1` was run?
Its value is -22.9%.

With `Nn1c(Cc2ccccc2)nc2sc3c(c2c1=O)CCC3` as the compound, how does the “hERG current change (%, negative = inhibition) at 1uM” value read?
The value was -3.44%.

With `CCOC(=O)c1c(-c2ccccc2)csc1NC(=O)C(C)NCCCN1CCOCC1.O=C(O)C(=O)O` (stereo not drawn) as the compound, how does the “hERG current change (%, negative = inhibition) at 1uM” value read?
Its value is 9.26%.

`COCC1CCN(C(=O)c2cc(COc3ccc(-n4cncn4)cc3)on2)CC1` was tested. Which “hERG current change (%, negative = inhibition) at 1uM” value did it give?
The value was -17.9%.

`Cc1ccc2nc3nc(NCC4CCCO4)c(C(=O)NC4CCCC4)cc3c(=O)n2c1` (stereo not drawn) was tested. Which “hERG current change (%, negative = inhibition) at 1uM” value did it give?
Its value is -83.8%.

`CCOC(=O)c1c(CN2CCOCC2)oc2ccc(OC)cc12` was tested. Which “hERG current change (%, negative = inhibition) at 1uM” value did it give?
The value was 5.97%.

How did the “hERG current change (%, negative = inhibition) at 1uM” value turn out when `COc1ccc(CNC(=O)N2CCN(S(=O)(=O)c3ccccc3)CC2)cc1` was run?
Its value is 11%.

`O=C(NNC(=O)C1CCCO1)c1ccc(Cl)cc1` (stereo not drawn) was tested. Which “hERG current change (%, negative = inhibition) at 1uM” value did it give?
Its value is 7.89%.

`O=c1[nH]n(-c2ccc(F)cc2)c2ncccc12` was tested. Which “hERG current change (%, negative = inhibition) at 1uM” value did it give?
The value was 7.16%.

With `Nc1ccc2oc3ncccc3c(=O)c2c1` as the compound, how does the “hERG current change (%, negative = inhibition) at 1uM” value read?
Its value is 10.9%.

With `COc1ccccc1OC(C)C(=O)N(Cc1ccco1)C1CCS(=O)(=O)C1` (stereo not drawn) as the compound, how does the “hERG current change (%, negative = inhibition) at 1uM” value read?
The value was -0.304%.

For `O=C(Nc1ccc(Br)cc1)C1CCN(C(=O)c2ccco2)CC1`, which “hERG current change (%, negative = inhibition) at 1uM” value is on record?
The value was 8.24%.
